# Data reported in PubChem BioAssay AID1460 (National Center for Advancing Translational Sciences (NCATS), 2008).
# Hit rate of the full screen: of about 270,000 compounds, about 5,800 (2.1%) were called active. Inconclusive means that the source gave no clear call. Such entries were picked first, then a sample of the others. The call rests on the fitted dose curve; in most records, active means well fitted inhibition curve with a large enough effect; inconclusive means small, poorly fitted or top-dose-only effect; inactive means flat fitted curve, though single readings scatter. Potencies beside an inconclusive call are fits to weak or partial responses and may not hold up.
# Target: Microtubule-associated protein tau (Homo sapiens) (UniProt P10636)
# Assay: qHTS for Inhibitors of Tau Fibril Formation, Thioflavin T Binding; further: nearly all actives have a fitted effect of over 55% in size
# Conditions: recombinant tau K18 P301L, heparin-induced fibrillization, ThT fluorescence; series mostly up to 57.4 µM
# In short: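 Using a mix of unlabeled (15 uM) and Alexa 594-labeled (0.24 uM) tau K18 P301L, heparin-triggered fibrillization over 6 hr at 37 C was scored by ThT fluorescence.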
# Potency means the concentration at half of the fitted maximal effect; tags describe the fitted curve by direction and shape.
# Chain of UniProt P10636 (P10636 whole entry, looked up): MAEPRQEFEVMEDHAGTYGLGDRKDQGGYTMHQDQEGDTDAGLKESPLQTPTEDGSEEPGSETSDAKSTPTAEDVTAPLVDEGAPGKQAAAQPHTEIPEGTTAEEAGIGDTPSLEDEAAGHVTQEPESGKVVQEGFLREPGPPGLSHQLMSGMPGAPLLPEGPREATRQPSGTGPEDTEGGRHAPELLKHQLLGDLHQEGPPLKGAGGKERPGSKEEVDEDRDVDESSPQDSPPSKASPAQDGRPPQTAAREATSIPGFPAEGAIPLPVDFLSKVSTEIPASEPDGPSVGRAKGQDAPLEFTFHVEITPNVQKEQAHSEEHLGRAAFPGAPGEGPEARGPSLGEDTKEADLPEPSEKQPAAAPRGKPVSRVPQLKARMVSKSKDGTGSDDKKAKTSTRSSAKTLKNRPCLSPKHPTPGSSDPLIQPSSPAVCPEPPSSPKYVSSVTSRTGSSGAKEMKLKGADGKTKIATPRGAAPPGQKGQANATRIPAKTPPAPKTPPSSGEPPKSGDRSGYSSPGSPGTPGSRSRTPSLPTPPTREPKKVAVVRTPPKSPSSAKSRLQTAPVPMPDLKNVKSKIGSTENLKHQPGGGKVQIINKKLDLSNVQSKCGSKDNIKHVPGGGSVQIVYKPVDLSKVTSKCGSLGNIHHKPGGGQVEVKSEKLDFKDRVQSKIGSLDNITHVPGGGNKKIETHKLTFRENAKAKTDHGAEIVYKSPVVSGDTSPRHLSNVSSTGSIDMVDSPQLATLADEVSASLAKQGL
row,SMILES,Potency
1,Cc1ccc(C(=O)O/N=C(\N)c2ccc(Br)cc2)cc1C,"inconclusive: 7.08 µM [inhibitor, partial curve]"
2,O=C(CSCc1cccc(F)c1)N1CCN(c2ccccc2)CC1,"inconclusive: 22.4 µM [inhibitor, partial curve]"
3,CO/N=C/CC(=O)c1cnc(-c2ccccc2)s1,"inconclusive: 22.4 µM [inhibitor, partial curve]"
4,CCOc1ccccc1CNCc1c(C(=O)O)c(C)n(Cc2ccc(Cl)cc2)c1C,inactive
5,O=C(Nc1nnc(C2CC2)s1)C1COc2ccccc2O1 (configuration not stated),inactive
6,COc1ccc(/C=C/C(=O)NC(=S)NNC(=O)c2cccnc2)cc1OC,"inconclusive: 7.94 µM [inhibitor, partial curve]"
7,Cc1ccc2c(c1)nnn2C1CCN(CC(=O)Nc2ccccc2N2CCOCC2)CC1,"inconclusive: 39.8 µM [inhibitor, single point]"
8,Cc1[nH][nH]c(=O)c1C(c1ccc(-c2ccc(Cl)c(Cl)c2)o1)c1c(C)[nH][nH]c1=O,active: 8.91 µM
9,O=C(NC(=S)NN1CCCCC1c1cccnc1)c1ccc(Br)cc1 (configuration not stated),inactive
10,O=C(c1[nH]c2ccccc2c1Sc1ccc(Cl)cc1)N1CCCCC1,inactive
11,Cc1ccc(OCC(=O)OCc2cc(=O)n3nc(C4CCCCC4)sc3n2)cc1C,"inconclusive: 15.8 µM [inhibitor, partial curve, poor fit]"
12,O=C(NCCSCc1cccc(Cl)c1)C1CCN(S(=O)(=O)Cc2ccccc2)CC1,inactive
13,Cc1ccc(Cl)cc1NC(=O)CSc1ccc(C(=O)O)cn1,inactive
14,CCN(CC)c1ccc(NC(=O)c2cc(C)nc3c2c(C)nn3-c2cccc(F)c2)c(C)c1,"inconclusive: 15.8 µM [inhibitor, partial curve]"
15,CCCCc1ccc(NC(=S)N2CCCC(C)C2)cc1 (configuration not stated),"inconclusive: 22.4 µM [inhibitor, single point]"
16,CCc1ccc(OCCCn2c(-c3ccc(Cl)cc3)nc3ccccc3c2=O)cc1,inactive
17,CCN(CC)c1ccc(CN(C(=O)Cc2coc3ccc(C)cc23)C2CCS(=O)(=O)C2)cc1 (configuration not stated),"inconclusive: 22.4 µM [inhibitor, single point]"
18,O=C(O)CCNC(=O)c1ccc(NC(=O)Cc2ccc(Cl)cc2)cc1,inactive
19,CCn1nc(C)c2c(-c3ccccc3)cc(=O)n(C(C)C(=O)NCc3cccc(OC)c3)c21 (configuration not stated),"inconclusive: 44.7 µM [inhibitor, single point]"
20,COc1ccc(-n2c(Cc3cccn3C)nnc2SCC(=O)Nc2ccc(F)cc2)cc1,inactive
21,CCC1(C(=O)OC)NC(c2ccco2)C2C(=O)N(c3ccc(F)cc3)C(=O)C21 (configuration not stated),"inconclusive: 35.5 µM [inhibitor, single point]"
22,COC(=O)CSc1nc(-c2cccs2)ccc1C#N,"inconclusive: 28.2 µM [inhibitor, partial curve]"
23,CCCCC(Sc1nc2cc3c(cc2c(=O)n1CCCC(=O)NCc1ccc(OC)cc1)OCO3)C(=O)OCC (configuration not stated),inactive
24,COc1ccc(N=CC2=C(O)c3ccccc3C2=O)cc1,active: 2.24 µM

row,SMILES,Potency
1,Cc1ccc(OCC(=O)N2CCCC(CCC(=O)N(C)CCc3ccccn3)C2)cc1 (configuration not stated),inactive
2,COc1ccc(C(=O)/C=C/C(=O)N(CC(=O)NC2CCCCC2)Cc2cccs2)c(O)c1,"inconclusive: 39.8 µM [inhibitor, single point]"
3,CCOC(=O)c1c(C)[nH]c(C2=NNC(=Nc3cccc(Cl)c3)SC2)c1C,active: 12.6 µM
4,CC(C)OCCCNC(=O)c1cc2c(-c3ccc(Cl)cc3)nn(C)c2s1,inactive
5,CC(C)(C)c1ccc(/C=C/C(=O)N2CCCCC2)cc1,"inconclusive: 3.16 µM [inhibitor, full curve]"
6,O=c1oc2ccccc2c(Nc2ccc(O)cc2)c1[N+](=O)[O-],"inconclusive: 15.8 µM [inhibitor, single point]"
7,Cn1nccc1C(=O)N1CCCC(C(=O)c2cccc3ccccc23)C1 (configuration not stated),inactive
8,C#CCOCCOCCOCCNc1nc(N2CCN(C(=O)[C@H]([C@@H](C)CC)n3cc([C@@H](N)Cc4ccc(O)cc4)nn3)CC2)nc(N2CCN(C(=O)[C@H]([C@@H](C)CC)n3cc([C@@H](N)Cc4ccc(O)cc4)nn3)CC2)n1,"inconclusive: 35.5 µM [inhibitor, single point]"
9,CCC(C)NC(=O)Cn1ncc2c([nH]c3ccc(C)cc32)c1=O (configuration not stated),inactive
10,COc1cccc(-c2ccc3c(N)c(C(=O)c4ccc(Cl)cc4)sc3n2)c1,active: 4.47 µM
11,CCOc1ccc(NCC(=O)c2ccc(C)cc2)cc1,"inconclusive: 17.8 µM [inhibitor, partial curve]"
12,CNC(=S)N/N=C/c1cn(CCOc2ccccc2OC)c2ccccc12,"inconclusive: 7.08 µM [inhibitor, partial curve]"
13,Cc1cccc(C)c1Nc1sc(C(=O)c2ccccc2)c(N)c1C(=O)Nc1ccc(F)cc1,"inconclusive: 15.8 µM [inhibitor, partial curve]"
14,O=c1[nH]c(SCc2cccc([N+](=O)[O-])c2)nc2[nH]ncc12,inactive
15,O=C(N/N=C/c1ccco1)c1ccc(NC(=O)C2CC2)cc1,"inconclusive: 2.82 µM [inhibitor, partial curve]"
16,CC#CCC1(C(=O)OC)C(=O)NC[C@H]1c1ccccc1 (some centres not stated),inactive
17,Cn1c(-c2ccc(Br)o2)nc2cc(Br)ccc21,"inconclusive: 3.55 µM [inhibitor, partial curve]"
18,Cc1csc(NC(=O)c2ccc(C)c([N+](=O)[O-])c2)n1,inactive
19,CC/C(=N\NC(=O)COc1ccc(Br)cc1)c1ccc(OC)c(OC)c1,"inconclusive: 11.2 µM [inhibitor, partial curve]"
20,COc1cc(CNc2ccc(N3CCCC3)cc2)ccc1OCc1ccccc1,active: 5.01 µM
21,Cc1ccc(O)c(NC(=O)c2cccc(NC(=O)c3ccco3)c2)c1,"inconclusive: 25.1 µM [inhibitor, partial curve]"
22,CCCCC(=O)NC(N1CCCCC1)C(Cl)(Cl)Cl (configuration not stated),"inconclusive: 28.2 µM [inhibitor, single point]"
23,COc1cc(C(=S)N2CCCCC2)ccc1OCC(=O)Nc1ccccc1Cl,"inconclusive: 28.2 µM [inhibitor, single point]"
24,N#C/C(=C\c1ccc(Cl)cc1)c1nc(-c2cc3ccccc3oc2=O)cs1,"inconclusive: 12.6 µM [inhibitor, partial curve]"

row,SMILES,Potency
1,COc1cccc(C(=O)N2c3cc(C)ccc3C(C)(c3ccccc3)CC2(C)C)c1 (configuration not stated),inactive
2,COc1ccc(CCNc2nc(-c3cccnc3)cs2)cc1OC,"inconclusive: 3.16 µM [inhibitor, partial curve]"
3,COc1ccc(CNCc2cn(-c3cccc(F)c3)nc2-c2ccc(C)o2)cc1,"inconclusive: 22.4 µM [inhibitor, partial curve, poor fit]"
4,CCCCN1C(=O)CC(C(=O)O)C1c1ccc(OC)cc1 (configuration not stated),inactive
5,Cc1cc(-c2ccccc2)nc2cc(C(=O)N(Cc3ccccc3)Cc3ccccc3)nn12,"inconclusive: 31.6 µM [inhibitor, single point]"
6,CCc1ccccc1Nc1nc2ccccc2n1CC,inactive
7,Cc1ccccc1C(=O)N=c1c(C#N)cc2c(=O)n3cccc(C)c3nc2n1Cc1ccco1,"inconclusive: 39.8 µM [inhibitor, partial curve]"
8,O=C(Nc1ccc([N+](=O)[O-])cc1)c1cc2ccccc2nc1Cl,"inconclusive: 20 µM [inhibitor, partial curve, poor fit]"
9,CCOc1ccccc1NC(=O)Cn1nnc2sc(-c3ccccc3)cc2c1=O,"inconclusive: 10 µM [inhibitor, partial curve]"
10,Cc1ccc2nc(SCc3nnc(-c4ccccc4[N+](=O)[O-])o3)c(C#N)cc2c1,inactive
11,COc1ccc(C2=CC(=O)CC(c3ccc(OC)cc3)C2)cc1 (configuration not stated),inactive
12,COc1ccc(CC2CCOC2=O)cc1 (configuration not stated),inactive
13,COc1ccc2cc(-c3nc4ccc(C(=O)O)cc4[nH]3)c(=O)oc2c1,"inconclusive: 15.8 µM [inhibitor, partial curve]"
14,COc1cccc(C2c3[nH]c4ccccc4c3CCN2Cc2cccc(C)n2)c1 (configuration not stated),"inconclusive: 25.1 µM [inhibitor, partial curve]"
15,CCN1C(=O)c2cccc3c(NC(=O)c4ccc(OC)c(OC)c4)ccc1c23,"inconclusive: 14.1 µM [inhibitor, partial curve]"
16,O=C(O)C1CSC2(c3ccc(Br)cc3)CCC(=O)N12 (configuration not stated),inactive
17,Cn1cc(Cl)c(C(=O)OCC(=O)Nc2nc(-c3ccc(Br)cc3)cs2)n1,"inconclusive: 2.51 µM [inhibitor, full curve, poor fit]"
18,CCCc1[nH]nc2c1C(c1cccnc1)C(C#N)=C(N)O2 (configuration not stated),active: 17.8 µM
19,CNc1cc(N2CCN(S(=O)(=O)N(C)C)CC2)ccc1[N+](=O)[O-],active: 15.8 µM
20,Cc1sc(N)nc1-c1cccs1,inactive
21,CC1CN(C(=O)Nc2ccc(C(=O)NCc3cccc(F)c3)cc2)c2ccccc2S1 (configuration not stated),"inconclusive: 35.5 µM [activator, single point]"
22,O=C(Nc1ccc(NC(=O)c2ccco2)c(Cl)c1)c1ccccc1,"inconclusive: 11.2 µM [inhibitor, partial curve]"
23,CCOC(=O)NC(NC(=S)Nc1ccc(OC)cc1)C(Cl)(Cl)Cl (configuration not stated),inactive
24,COc1cccc(NC(=S)/C(=C(\[O-])c2cc(C)n(-c3ccccc3F)c2C)[n+]2ccc(N(C)C)cc2)c1,"inconclusive: 39.8 µM [inhibitor, single point]"
